First the molecules themselves.
B1: CPEB3 Ribozyme (parent)
chain: UAACAGGGGGCCACAGCAGAAGCGUUCACGUCGCAGCCCCUGUCAGAUUCUGGUGAAUCUGCGAAUUCUGCUGUAUAUCUC

Read counts are not given, so values of variants with three or more changes are uncertain.

In this data set the parent is B1. The data set can be described thus: self-cleavage, relative activity (ratio to wild type); higher = more cleavage; in vitro, sequencing. In short, it runs like this:
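Barcoded CPEB3 ribozyme mutants, produced by rounds of error-prone PCR, self-cleaved while being transcribed with T7 RNA polymerase for 5 hours at 37°C and during a subsequent 15 min DNase I step before EDTA was added. Sequencing of template-switched cDNA on Illumina gave cleaved and total reads, and DNA sequencing assigned barcodes to variants. Each variant's relative activity is its cleaved/total read fraction divided by the unmutated ribozyme's fraction, averaged across three batches. A variant needed a minimum of 5 reads.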
Consider A35G U41A U60C U78C, for which the self-cleavage stood at 0.14.

For the variant A35G U51A A56G, the self-cleavage was 1.27.

On to A35G U48A U58C, for which the self-cleavage worked out at 0.45.

Take A35G U49C U66C U78C U80A: the self-cleavage is 0.33.

In the case of A35G U51C U54C, the self-cleavage was determined as 1.23.

Turning to A35G A64U U69C, the self-cleavage came out at 0.55.

For the variant A35G U41C U43C A57G U66A, the self-cleavage came to 0.17.

For A35G U49C U60A U74C, the self-cleavage is 0.91.

Consider A35G U43C U76A, for which the self-cleavage amounted to 1.25.

In the case of A35G A56G U60A U78C, the self-cleavage turned out to be 0.94.

On to A35G U41C A45G U72A, for which the self-cleavage is 0.96.

As for A35G C44U U60C A65G, the self-cleavage was found to be 0.24.

Consider A35G A64G U69A, for which the self-cleavage was 0.75.

On to A35G A56G U76A, for which the self-cleavage stood at 1.28.

Take A35G U43A U72A A77C: the self-cleavage was 1.21.

In the case of A35U A64U U66C, the self-cleavage stood at 0.15.

Turning to A35U U41C G70U U74C, the self-cleavage stood at 0.16.

Take A35G U58C C71A: the self-cleavage is 0.45.

As for A35U A56G A65U U69C, the self-cleavage was determined as 0.12.

Take A35G U69C C81A: the self-cleavage was found to be 1.29.

In the case of A35G U43C U49A G63A A65U U69A U72A, the self-cleavage was 0.06.

As to A35G G63C C71G U74A, the self-cleavage worked out at 1.25.

A35U A47G U69A U74C U78A: the self-cleavage was 0.22.

For the variant A35U U41A A47G U54C, the self-cleavage is 0.07.

With A35G U54G U72C, the self-cleavage amounted to 1.15.

For A35U A47G U80A, the self-cleavage amounted to 0.65.

Turning to A35U A47G U80C, the self-cleavage amounted to 0.66.

For the variant A35G U43C U67C, the self-cleavage was 0.53.

In the case of A35G U41C U69A, the self-cleavage amounted to 1.31.

Consider A35G A45G A64U, for which the self-cleavage came to 0.93.

Consider A35G A64U U66C U74C U78C, for which the self-cleavage came to 0.6.

Take A35G U51A U66C: the self-cleavage came out at 1.25.

In the case of A35G U51C U58C U78A, the self-cleavage amounted to 1.14.

On to A35G U66C U78G, for which the self-cleavage was 1.24.

On to A35G U58A U69A G73A, for which the self-cleavage was 0.9.

On to A35G U41A U43A, for which the self-cleavage was 0.29.

A35G C68U U78C: the self-cleavage is 1.27.

Regarding A35U A57G A64G, the self-cleavage stood at 0.34.

For the variant A35U A45G A56U A57U, the self-cleavage came out at 0.32.

Take A35G A56C A77G: the self-cleavage was determined as 1.25.

Turning to A35G U49C A57G, the self-cleavage was 0.97.

As to A35G U66C U69C, the self-cleavage is 0.64.

Take A35G A47U U54C U72C: the self-cleavage came out at 0.98.

In the case of A35G C39U U54C G70C, the self-cleavage is 0.21.

In the case of A35U A45G U51A A64U, the self-cleavage stood at 0.15.

Consider A35G U54C U72C, for which the self-cleavage is 1.36.

Regarding A35G U58C U60A U72A U76C, the self-cleavage was determined as 0.59.

Take A35G U60G U69A U74A: the self-cleavage worked out at 0.74.

Regarding A35U A47G U51A U54C A56U, the self-cleavage was 0.16.

On to A35G U43A A65G U72C, for which the self-cleavage turned out to be 1.05.

With A35G A65U U74C, the self-cleavage worked out at 1.06.

As to A35G U43A A56G U74C, the self-cleavage is 1.27.

A35G U41C A75U: the self-cleavage stood at 1.29.

Take A35G A57G U60A U74C: the self-cleavage came out at 1.39.

With A35G U69C C71A U76C, the self-cleavage was determined as 0.47.

Take A35G A47U U60C A65G: the self-cleavage stood at 0.36.

On to A35G C62A U69C, for which the self-cleavage came to 0.64.

As to A35G C40G A56U U69C A75G, the self-cleavage was 0.09.

Take A35G U48C U51A: the self-cleavage amounted to 1.2.

For the variant A35U A64G U80C, the self-cleavage came out at 0.33.

Regarding A35G A45G A47U, the self-cleavage worked out at 1.12.

As to A35G C38A A47U C71A, the self-cleavage came to 0.13.

In the case of A35G A65U A77G, the self-cleavage amounted to 0.96.

As to A35G U48A U51C U60A U78C, the self-cleavage worked out at 0.22.

Take A35G C40A U48C U72C: the self-cleavage was determined as 0.34.

Take A35U A45G U66C U78C: the self-cleavage was determined as 0.07.

In the case of A35G U54C U60A, the self-cleavage was 0.99.

Consider A35G U58C U66C U78C, for which the self-cleavage worked out at 0.67.

For the variant A35G A45G A57G U69A U76C, the self-cleavage came to 1.03.

For A35U A47U U60C U72A, the self-cleavage came out at 0.08.

For A35U A45G U51C U54C U72G, the self-cleavage stood at 0.13.

As to A35G U48C U58G, the self-cleavage came to 1.15.

As to A35G U41C U69A U72C, the self-cleavage was found to be 0.88.

For the variant A35G G46U U54A U69C, the self-cleavage was 0.22.

On to A35U A47G U48G, for which the self-cleavage came out at 0.2.

With A35U G36A C38U A45G, the self-cleavage is 0.09.

Consider A35U U41A G52A A65G U80C, for which the self-cleavage was 0.15.

A35G U43C A65U: the self-cleavage was found to be 0.35.

In the case of A35G A56U U67C, the self-cleavage was found to be 0.63.

Turning to A35G U41C U72C U74C U80A, the self-cleavage stood at 1.31.

Regarding A35G U58C U69C U76C, the self-cleavage amounted to 0.64.

Regarding A35G A57U U69A, the self-cleavage is 0.86.

On to A35U A47G G52U U60G, for which the self-cleavage was found to be 0.11.

On to A35G U49C U69G, for which the self-cleavage stood at 0.47.

In the case of A35G U41C G46C C71U, the self-cleavage stood at 0.33.

For the variant A35G U49A U69C, the self-cleavage stood at 0.37.

As for A35G U43A A45U A56G, the self-cleavage is 1.15.

In the case of A35U U41C A45G U72C, the self-cleavage turned out to be 0.19.

Consider A35G U49C C50A U78C, for which the self-cleavage worked out at 1.27.

As for A35U C37U U67C G73U, the self-cleavage was found to be 0.04.

For A35G U43C U54C, the self-cleavage was 0.87.

A35U C62G U78C: the self-cleavage came out at 0.04.

In the case of A35U U41A A65G U69C U78A, the self-cleavage was determined as 0.19.

With A35G C37U U41C G42U U51A, the self-cleavage was 0.28.

Regarding A35G U41A A57U G63A, the self-cleavage was 0.26.

A35U U41A U67A U72C: the self-cleavage turned out to be 0.16.

As for A35G C79U U80A, the self-cleavage turned out to be 1.29.

With A35G U41G U60A G73A, the self-cleavage was 0.13.

In the case of A35G A56G A57U U60C, the self-cleavage was 0.54.

A35U A45G A56U A64U: the self-cleavage was determined as 0.11.

For the variant A35G A45U U48C, the self-cleavage worked out at 0.4.

Regarding A35U A47G U60C A64G, the self-cleavage is 0.13.

Regarding A35C U54C U78C, the self-cleavage was determined as 0.73.

With A35G A47U U72C, the self-cleavage worked out at 1.09.

As for A35U G36A A64G, the self-cleavage was found to be 0.14.

With A35G U60C A75G, the self-cleavage is 1.07.

On to A35G C38U U58C U69A A77G, for which the self-cleavage turned out to be 0.7.

In the case of A35U A57G U58A, the self-cleavage is 0.15.

For A35U A45G U51C A56U U80C, the self-cleavage was found to be 0.13.

As for A35G U41C A56G U72A, the self-cleavage amounted to 1.33.

A35G U41A A47G U58C A77G U80C C81U: the self-cleavage came out at 0.47.

Consider A35G U49C U60C U76C, for which the self-cleavage is 0.2.

A35G A56U C59U U60A U67C U76C: the self-cleavage worked out at 0.55.

For the variant A35G A45G G63U, the self-cleavage came to 1.14.

A35U C50A U72C: the self-cleavage came out at 0.3.

With A35G U67A U69C U72C U74C U80C, the self-cleavage was 0.35.

Consider A35G A45U U58C, for which the self-cleavage came out at 0.59.

As to A35G U58C G70A U78C, the self-cleavage was 0.89.

With A35U A57G C59U, the self-cleavage was 0.3.

As for A35U A45U U54C U58G A64U, the self-cleavage stood at 0.06.

Take A35U G52C C59A: the self-cleavage was 0.16.

In the case of A35G U60C C62A, the self-cleavage came to 0.4.

Take A35U C62U A64G: the self-cleavage worked out at 0.17.

For the variant A35G U41A U48C C50U C59A, the self-cleavage is 0.07.

As to A35G U43C U72C A75G U80A, the self-cleavage turned out to be 1.29.

As for A35G A65G U72A, the self-cleavage came to 0.78.

For the variant A35G U60C U80A, the self-cleavage amounted to 1.12.

With A35G G53A U80C, the self-cleavage was 1.28.

As for A35G U41A A45G, the self-cleavage was determined as 0.32.

Consider A35G U48C A56G, for which the self-cleavage came out at 1.23.

For A35G A45C U60G C71A, the self-cleavage amounted to 0.28.

Consider A35G A64G U72C, for which the self-cleavage stood at 0.85.

Turning to A35G U60C C71A, the self-cleavage is 0.57.

Consider A35G U41C U78C, for which the self-cleavage turned out to be 1.25.

A35G U41C U43C U49C U67C U78C: the self-cleavage is 0.09.

On to A35G A47U U66C, for which the self-cleavage came out at 0.8.

A35U A45G U48A U54C: the self-cleavage came out at 0.17.

Regarding A35G U41C U58C, the self-cleavage was 1.13.

Take A35G U69C U74A: the self-cleavage is 1.22.

A35G G42C U69C: the self-cleavage was 0.15.

Turning to A35G U43A A65G, the self-cleavage came to 0.83.

With A35C U66C U74C U80C, the self-cleavage is 0.21.

Take A35G A45G A47G U74G: the self-cleavage came out at 1.28.

In the case of A35G U48C U72C, the self-cleavage is 1.17.

On to A35G U43C U58C U80A, for which the self-cleavage stood at 0.5.

As for A35U A64G U76C, the self-cleavage was 0.3.

For A35G U72A U76A, the self-cleavage worked out at 1.21.

Take A35U A64U U72C U76C: the self-cleavage is 0.09.

Take A35G U49C U80C: the self-cleavage was found to be 1.09.

As to A35G U51A A57U A64G, the self-cleavage worked out at 1.2.

For the variant A35U A47U U54C, the self-cleavage was found to be 0.38.

Turning to A35G A45G U58C U80C, the self-cleavage was determined as 1.

On to A35G C40A U80A, for which the self-cleavage is 0.38.

Regarding A35G U60A C71A U72G U76A, the self-cleavage turned out to be 0.67.

For the variant A35U U41C U43C U67A, the self-cleavage was determined as 0.07.

A35G U51C U66C U69C: the self-cleavage turned out to be 0.7.

With A35G C40A U67C, the self-cleavage came to 0.31.

A35U A45G A57G U60A: the self-cleavage was 0.12.

In the case of A35G A45C U67C U80C, the self-cleavage amounted to 0.19.

In the case of A35G A47G A57C, the self-cleavage was 1.05.

Consider A35G A45G U54C U69A, for which the self-cleavage was 1.12.

Take A35G A56G A64G: the self-cleavage was found to be 1.01.

Take A35G G36C U48C U67C: the self-cleavage came to 0.11.

For the variant A35U C38U A47G U48C G63U, the self-cleavage is 0.08.

For the variant A35G U66C G70U A77G U78C, the self-cleavage was found to be 0.65.

As for A35G C71G U74A, the self-cleavage is 1.4.

For A35G G55A U67C U78C, the self-cleavage came out at 0.64.

The values are drawn from the RNAGym collection of RNA variant scans (doi:10.1093/nar/gkz1192).
